# The list shows a part of the results. The full chains were built here from the parent and the listed change. Values near 0.05 are background.
# B1: TEV protease; numbered along this chain (parent)
# chain: MGESLFKGPRDYNPISSSICHLTNESDGHTTSLYGIGFGPFIITNKHLFRRNNGTLVVQSLHGVFKVKDTTTLQQHLVDGRDMIIIRMPKDFPPFPQKLKFREPQREERICLVTTNFQTKSMSSMVSDTSCTFPSGDGIFWKHWIQTKDGQCGSPLVSTRDGFIVGIHSASNFTNTNNYFTSVPKNFMELLTNQEAQQWVSGWRLNADSVLWGGHKVFMVKPEEPFQPVKEATQL
# Variants of: B1
# Assay: raw area under fraction-flipped curve 0-4 h after induction (AUC4h, not background-subtracted), DNA-recorder readout of cleavage of the substrate (dimensionless); higher = more cleavage of the substrate by the protease variant
# Details: temperature: 34 °C; time window: 0-4 h after rhamnose induction
# 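Note: Bxb1 expression induced with 0.2% (w/v) L-rhamnose at OD600 near 0.5, cultures sampled hourly, flipped fraction per protease–substrate barcode pair counted by paired-end Illumina sequencing.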
Variant,area with substrate ENLYFQD,area with substrate ENLYFQK,area with substrate ENLYFQL,area with substrate ENLYFQQ,area with substrate ENLYFQS,area with substrate ENLYFQT,area with substrate ENLYFQE,area with substrate ENLYFQR,area with substrate ENLYFQW,area with substrate ENLYFQY,area with substrate ENLYFQH,area with substrate ENLYFQM,area with substrate ENLYFQP,area with substrate ENLYFQG,area with substrate ENLYFQN,area with substrate ENLYFQV,area with substrate ENLYFQI,area with substrate ENLYFQF
MGESLFKGPRDYNPISSSICHLTNESDGHTTSLYGIGFGPFIITNKHLFRRNNGTLVVQSLHGVFKVKDTTTLQQHLVDGRDMIIIRMPKDFPPFPQKLKFREPQREERICLVTTNFQTKSMSSMVSDTSCTFPSGDGIFWKHWIQTKDGQCGSPLVSTRDGFIVGIHSASNFTNTNNYFTSVPKNFMELLVNQEAQQWVSGWRLNADSVLWGGHKVFMVKPEEPFQPVKEATQL [T192V],0.106,0.0556,0.0785,0.0505,0.108,0.0606,–,–,–,–,–,–,–,–,–,–,–,–
MGESLFKGPRDYNPISSSICHLTNESDGHTTSLYGIGFGPFIITNKHLFRRNNGTLVVQSLHGVFKVKDTTTLQQHLVDGRDMIIIRDPKDFPPFPQKLKFREPQREERICLVTTNFQTKSMSSMVSDTSCTFPSGDGIFWKHWIQTKDGQCGSPLVSTRDGFIVGIHSASNFTNTNNYFTSVPKNFMELLTNQEAQQWVSGWRLNADSVLWGGHKVFMVKPEEPFQPVKEATQL [M88D],–,–,–,0.0619,0.0429,–,0.0628,0.0496,0.0433,0.0209,–,–,–,–,–,–,–,–
MGESLFKGPRDYNPISSSICHLTNESDGHTTSLYGIGFGPFIITNKHLFRRNNGTLVVQSLHGVFKVKDTTCLQQHLVDGRDMIIIRMPKDFPPFPQKLKFREPQREERICLVTTNFQTKSMSSMVSDTSCTFPSGDGIFWKHWIQTKDGQCGSPLVSTRDGFIVGIHSASNFTNTNNYFTSVPKNFMELLTNQEAQQWVSGWRLNADSVLWGGHKVFMVKPEEPFQPVKEATQL [T72C],0.0958,0.0604,0.0688,–,0.0982,0.0694,–,0.0588,–,–,0.076,0.087,0.0509,–,–,–,–,–
MGESLFKGPRDYNPISSSICHLTNESDGHTTSLYGIGFGPFIITNKHLFRRNNGTLVVQSLHGVFKVKDTTNLQQHLVDGRDMIIIRMPKDFPPFPQKLKFREPQREERICLVTTNFQTKSMSSMVSDTSCTFPSGDGIFWKHWIQTKDGQCGSPLVSTRDGFIVGIHSASNFTNTNNYFTSVPKNFMELLTNQEAQQWVSGWRLNADSVLWGGHKVFMVKPEEPFQPVKEATQL [T72N],0.0688,–,0.0561,–,0.1,0.0742,–,0.0636,0.0742,–,–,0.0802,0.0398,0.102,0.0721,–,–,–
MGESLFKGPRDYNPISSSICHLTNESDGHTTSLYGIGFGPFIITNKHLFRRNNGTLVVQSLHGVFKVKDTTTLQQHLVDGRDMIIIRMPKDFPPFPQKLKFREPQREERICLVTTNFQTKSMSSMVSDTSCTFPSGDGIFWKHWIQTKDGQCGSPLVSTKDGFIVGIHSASNFTNTNNYFTSVPKNFMELLTNQEAQQWVSGWRLNADSVLWGGHKVFMVKPEEPFQPVKEATQL [R160K],–,0.0649,0.0607,–,0.0948,–,0.0821,0.0612,–,0.0801,0.0748,0.0966,–,0.0847,0.0867,0.0599,–,–
MGESLFKGPRDYNPISSSICHLTNESDGHTTSLYGIGFGPFIITNKHLFRRNNGTLVVQSLHGVFKVKDTTTLQQHLVDGRDMIIIRMPKDFPPFPQKLKFREPQREERICLVTTNFQTKSMSSMVSDTSCTFPSWDGIFWKHWIQTKDGQCGSPLVSTRDGFIVGIHSASNFTNTNNYFTSVPKNFMELLTNQEAQQWVSGWRLNADSVLWGGHKVFMVKPEEPFQPVKEATQL [G136W],0.0644,0.0656,–,–,0.0976,0.0541,–,0.051,0.0702,0.0629,0.07,0.0682,–,–,0.0648,0.0566,0.0551,–
MGESLFKGPRDYNPISSSICHLTNESDGHTTSLYGIGFGPFIITNKHLFRRNNGTLVVQSLHGVFKVKDTTTLQQHLVDGRDMIIIRMPKDFPPFPQKLKFREPQREERICLVTTNFQTKSMSSMVSDTSCTFPSRDGIFWKHWIQTKDGQCGSPLVSTRDGFIVGIHSASNFTNTNNYFTSVPKNFMELLTNQEAQQWVSGWRLNADSVLWGGHKVFMVKPEEPFQPVKEATQL [G136R],0.069,0.0615,0.059,0.0627,0.102,0.0616,–,0.0632,0.0569,0.0661,0.087,0.0926,0.0629,0.102,0.0723,–,0.0522,–
MGESLFKGPRDYNPISSSICHLTNESDGHTTSLYGIGFGPFIITNKHLFRRNNGTLVVQSLHGVFKVKDTTTLQQHLVDGRDMIIIRMPKDFPPFPQKLKFREPQREERICLVTTNFQTKSMSSMVSDTSCTFPSGDGIFWKHWIQTKDGQCGSPLVSTRDGFIVGIHSASNFTNTNNYFTSVVKNFMELLTNQEAQQWVSGWRLNADSVLWGGHKVFMVKPEEPFQPVKEATQL [P184V],0.0413,0.056,0.0472,–,0.0797,0.0615,–,0.029,0.0507,0.0678,0.0624,–,0.0704,–,–,0.0519,0.0611,–
MGESLFKGPRDYNPISSSICHLTNESDGHTTSLYGIGFGPFIITNKHLFRRNNGTLVVQSLHGWFKVKDTTTLQQHLVDGRDMIIIRMPKDFPPFPQKLKFREPQREERICLVTTNFQTKSMSSMVSDTSCTFPSGDGIFWKHWIQTKDGQCGSPLVSTRDGFIVGIHSASNFTNTNNYFTSVPKNFMELLTNQEAQQWVSGWRLNADSVLWGGHKVFMVKPEEPFQPVKEATQL [V64W],–,0.0591,0.0594,–,0.0995,0.0673,–,0.0737,0.0737,0.0736,–,0.125,–,–,0.0821,–,0.049,0.0694
MGESLFKGPRDYNPISSSICHLTNESDGHTTSLYGIGFGPFIITNKHLFRRNNGTIVVQSLHGVFKVKDTTTLQQHLVDGRDMIIIRMPKDFPPFPQKLKFREPQREERICLVTTNFQTKSMSSMVSDTSCTFPSGDGIFWKHWIQTKDGQCGSPLVSTRDGFIVGIHSASNFTNTNNYFTSVPKNFMELLTNQEAQQWVSGWRLNADSVLWGGHKVFMVKPEEPFQPVKEATQL [L56I],–,0.0703,0.0658,0.0556,0.0992,0.0947,0.0455,–,0.0649,–,–,–,–,–,–,–,0.032,–
MGESLFKGPRDYNPISSSICHLTNESDGHTTSLYGIGFGPFIITNKHLFRRNNGTLVVQSLHGVFKVKDTTTLQQHLVDGRDMIIIRMPKDFPPFLQKLKFREPQREERICLVTTNFQTKSMSSMVSDTSCTFPSGDGIFWKHWIQTKDGQCGSPLVSTRDGFIVGIHSASNFTNTNNYFTSVPKNFMELLTNQEAQQWVSGWRLNADSVLWGGHKVFMVKPEEPFQPVKEATQL [P96L],0.075,–,0.0593,–,0.103,0.0573,–,0.0785,0.053,0.0728,–,0.0851,–,0.0762,0.0734,0.0545,–,–
MGESLFKGPRDYNPISSSICHLTNESDGHTTSLYGIGFGPFIITNKHLFRRNNGTLVVQSLHGVFKVKDTTTLQQHLVDGRDMIIIRMPKDFPPFFQKLKFREPQREERICLVTTNFQTKSMSSMVSDTSCTFPSGDGIFWKHWIQTKDGQCGSPLVSTRDGFIVGIHSASNFTNTNNYFTSVPKNFMELLTNQEAQQWVSGWRLNADSVLWGGHKVFMVKPEEPFQPVKEATQL [P96F],–,0.0983,0.0701,–,0.0937,0.0606,–,0.0609,–,–,–,0.0784,0.0566,0.0762,0.0596,–,–,0.0573
MGESLFKGPRDYNPISSSICHLTNESDGHTTSLYGIGFGPFIITNKHLFRRNNGTLVVQSLHGVFKVKDTTTLQQHLVDGRDMIIIRMPKDFPPFPQKLKFREPQREERICLVTTNFQTKSMSSMVSDTSCTFPSGDGIFWKHWIQTKDGQCGSPLVSTRDGFIVGIHSASNFTNTNNYFTSVPKNFMELLTNQEAQQWWSGWRLNADSVLWGGHKVFMVKPEEPFQPVKEATQL [V200W],0.0567,–,0.0649,–,0.063,–,–,–,0.0469,–,0.044,–,0.0586,–,–,–,–,–
MGESLFKGPRDYNPISSSICHLTNESDGHTTSLYGIGFGPFIITNKHLFRRNNGTLVVQSLHGVFKVKDTTTLQQHLVDGRDMIIIRMPKDFPPFPQKLKFREPQREERICLVTTNFQTKSMSSMVSDTSCTFPSGDGIFWKHWIQTKDGQCGSPLVSTRDGFIVGIHSASNFTNTNNYFTSVPKNFMELLTNQEAQQWASGWRLNADSVLWGGHKVFMVKPEEPFQPVKEATQL [V200A],0.0632,0.0743,–,–,0.0667,0.0483,–,0.0487,–,–,–,0.0669,0.0614,–,0.0625,–,0.0569,–
MGESLFKGPRDYNPISSSICHLTNESDGHTTSLYGIGFGPFIITNKHLFRRNNGTLVVQSLHGVFKVKDTTTLQQHLVDGRDMIIIRMPKDFPPFPQKLKFREPQREERICLVTTNFQTKSMSSMVSDTSCTFPSGDGIFWKHWIQTKDGQCGSPLVSTRDGFIVGIHSASNFTNTNNYFTSVPKNFMELLTNQEAQQWLSGWRLNADSVLWGGHKVFMVKPEEPFQPVKEATQL [V200L],0.068,–,0.056,–,0.0817,–,–,0.0649,0.0799,–,0.062,0.0815,0.0618,–,–,0.0573,0.07,–
MGESLFKGPRDYNPISSSICHLTNESDGHTTSLYGIGFGPFIITNKHLFRRNNGTLVVQSLHGVFKVKDTTTLQQHLVDGRDMIIIRMPKDFPPFPQKLKFREPQREERICLVTTNFQTKSMSSMVSDTSCTFPSGDGIFWKHWIQTKDGQCGSPLVSTRDGFIVGIHSASNFTNTNNYFTSVPKNFMELLTNQEAQQWVSGWRLNADSVLWGGHKVFMVKPEEPFQPVKEWTQL [A232W],–,–,–,–,0.0929,0.117,0.0675,0.0508,–,–,–,0.16,0.0519,–,0.0819,0.064,–,–
MGESLFKGPRDYNPISSSICHLTNESDGHTTSLYGIGFGPFIITNKHLFRRNNGTLVVQSLHGVFKVKDTTTLQQHLVDGRDMIIIRMPKDFPPFPQKLKFREPQREERICLVTTNFQTKSMSSMVSDTSCTFPSGDGIFWKHWIQTKDGQCGSPLVSTRDGFIVGIHSASNFTNTNNYFTSVPKNFMELLTNQEAQQWVSGWRLNADSVLWGGHKVFMVKPEEPFQPVKETTQL [A232T],0.0734,–,–,0.102,0.115,–,–,0.0488,–,–,–,–,–,–,0.0845,–,0.0451,–
MGESLFKGPRDYNPISSSICHLTNESDGHTTSLYGIGFGLFIITNKHLFRRNNGTLVVQSLHGVFKVKDTTTLQQHLVDGRDMIIIRMPKDFPPFPQKLKFREPQREERICLVTTNFQTKSMSSMVSDTSCTFPSGDGIFWKHWIQTKDGQCGSPLVSTRDGFIVGIHSASNFTNTNNYFTSVPKNFMELLTNQEAQQWVSGWRLNADSVLWGGHKVFMVKPEEPFQPVKEATQL [P40L],–,0.0564,0.0622,–,0.0897,0.0576,0.0647,0.0652,0.0638,0.0694,0.0857,0.0592,–,0.103,0.0609,–,0.0588,–
MGESLFKGPRDYNPISSSICHLTNESDGHTTSLYGIGFGTFIITNKHLFRRNNGTLVVQSLHGVFKVKDTTTLQQHLVDGRDMIIIRMPKDFPPFPQKLKFREPQREERICLVTTNFQTKSMSSMVSDTSCTFPSGDGIFWKHWIQTKDGQCGSPLVSTRDGFIVGIHSASNFTNTNNYFTSVPKNFMELLTNQEAQQWVSGWRLNADSVLWGGHKVFMVKPEEPFQPVKEATQL [P40T],0.0815,0.0613,0.0534,–,0.106,0.0744,–,0.0531,0.0725,0.0809,0.0829,–,0.0622,0.119,0.082,–,0.0506,–
MGESLFKGPRDYNPIVSSICHLTNESDGHTTSLYGIGFGPFIITNKHLFRRNNGTLVVQSLHGVFKVKDTTTLQQHLVDGRDMIIIRMPKDFPPFPQKLKFREPQREERICLVTTNFQTKSMSSMVSDTSCTFPSGDGIFWKHWIQTKDGQCGSPLVSTRDGFIVGIHSASNFTNTNNYFTSVPKNFMELLTNQEAQQWVSGWRLNADSVLWGGHKVFMVKPEEPFQPVKEATQL [S16V],–,0.0737,0.0661,0.0734,0.107,0.0627,–,0.0564,0.0648,0.0851,–,0.0827,0.056,0.117,0.0452,–,–,0.0672

# Source: the supplement of paper PMC12217912
